The text below walks through data of the supplement of paper PMC6135742.

The structures appear in SMILES notation. Several values for one entry are separate records, joined by “and”; a condition that tells them apart may be missing. Equal entries are not always repeated. Structures can show the parent of a compound that is named as a salt. Whole data set: some 2,600 compounds, median “total cell number (DAPI+ nuclei) relative to DMSO vehicle control” near -1.4, cut for the lowest 2% near -23. This is one part of the list.

The assay has as its system jimpy (Plp1 jimpy) mouse iPSC-derived oligodendrocyte progenitor cells. The assay can be described thus: total cell number (DAPI+ nuclei) relative to DMSO vehicle control (SDs above negative control mean); higher = more surviving cells. Particulars: 10 µM; 3 days.
`O=c1ccc2c(OCCCCc3ccccc3)c3ccoc3cc2o1` [Psora-4]: the total cell number was -1.49.
`CC(C)CN(C[C@@H](O)[C@H](Cc1ccccc1)NC(=O)O[C@H]1CCOC1)S(=O)(=O)c1ccc(N)cc1` [Amprenavir] registered a total cell number of -0.902.
On to `O=C(O)C1=CCNCC1` [Isoguvacine hydrochloride], for which the total cell number was 0.101.
Under `CNC(=C[N+](=O)[O-])NCCSCc1csc(CN(C)C)n1` [Nizatidine] stands 0.598.
Under `CC1(C)[C@@H](O[C@H]2O[C@H](C(=O)O)[C@@H](O)[C@H](O)[C@H]2O[C@@H]2O[C@H](C(=O)O)[C@@H](O)[C@H](O)[C@H]2O)CC[C@]2(C)[C@H]3C(=O)C=C4[C@@H]5C[C@@](C)(C(=O)O)CC[C@]5(C)CC[C@@]4(C)[C@]3(C)CC[C@@H]12` [Glycyrrhizic Acid] stands -0.749; under `CC1(C)[C@@H](O[C@H]2O[C@H](C(=O)O)[C@@H](O)[C@H](O)[C@H]2O[C@@H]2O[C@H](C(=O)O)[C@@H](O)[C@H](O)[C@H]2O)CC[C@]2(C)[C@H]3C(=O)C=C4[C@@H]5C[C@@](C)(C(=O)O)CC[C@]5(C)CC[C@@]4(C)[C@]3(C)CC[C@@H]12` [Ammonium Glycyrrhizinate], 0.599; under `c1ccc2c(Oc3nc(Nc4ccc(N5CCOCC5)cc4)c4ncn(C5CCCCC5)c4n3)cccc2c1` [Purmorphamine], -9.2.
`C[C@]12C=CC(=O)C=C1CC[C@@H]1C2=CC[C@]2(C)[C@@H](C(=O)CN3CCN(c4cc(N5CCCC5)nc(N5CCCC5)n4)CC3)CC[C@@H]12` gave a total cell number of -0.429.
For `C[C@]12C=CC(=O)C=C1CC[C@@H]1[C@@H]2C(=O)C[C@@]2(C)[C@H]1CC[C@]2(O)C(=O)CO` [Prednisone] the value was -1.65.
With `COc1cc(NC(=O)c2ccc(-c3ccc(Cl)cc3)o2)cc(OC)c1`, the total cell number was -0.0688.
For `COc1cc2c(cc1O)[C@@H](Cc1ccc(O)c(Oc3ccc(C[C@@H]4c5cc(OC)c(OC)cc5CCN4C)cc3)c1)N(C)CC2` [Daurisoline] the value was -10.
Consider `C[C@@H]1CN(c2c(F)c(N)c3c(=O)c(C(=O)O)cn(C4CC4)c3c2F)C[C@H](C)N1` [Sparfloxacin], for which the total cell number is -1.58.
Under `C[C@@H]1O[C@@H]1P(=O)(O)O` [Phosphomycin disodium] stands -0.127; under `Cn1c(=O)c2[nH]c(-c3ccc(S(=O)(=O)O)cc3)nc2n(C)c1=O` [8-(p-Sulfophenyl)theophylline], -1.13; under `CC#CCOC(=O)c1c(C)nc2sc3c(c2c1N)CCC(O)C3` (stereo not given), 7.08.
`CCn1cc(C(=O)O)c(=O)c2cc(F)c(N3CCN(C)CC3)cc21` [Pefloxacin Mesylate]: the total cell number came to 0.455.
Under `CCOC(=O)c1ccc(N2NC(=O)C(=Cc3ccc([N+](=O)[O-])o3)C2=O)cc1` stands -3.31; under `CCc1cc(C(N)=S)ccn1` [Ethionamide], 1.31.
For `Cc1ccc(C(=O)Nc2ccc(S(=O)(=O)O)c3cc(S(=O)(=O)O)cc(S(=O)(=O)O)c23)cc1NC(=O)c1cccc(NC(=O)Nc2cccc(C(=O)Nc3cc(C(=O)Nc4ccc(S(=O)(=O)O)c5cc(S(=O)(=O)O)cc(S(=O)(=O)O)c45)ccc3C)c2)c1` [Suramin sodium salt] the value was -1.85; for `Cn1cc(C2=C(c3ccc(Cl)cc3Cl)C(=O)NC2=O)c2ccccc21`, 6.45 and 3.32.
In the case of `O=C(NC(NC(=S)Nc1ccc(F)c([N+](=O)[O-])c1)C(Cl)(Cl)Cl)C(c1ccccc1)c1ccccc1` (stereo not given), the total cell number is -15.7.
For `OCc1ccc(O[C@@H]2O[C@H](CO)[C@@H](O)[C@H](O)[C@H]2O)cc1` [Gastrodin] the value was -0.28.
For `CCOc1cc2ncc(C#N)c(Nc3ccc(OCc4ccccn4)c(Cl)c3)c2cc1NC(=O)/C=C/CN(C)C` [Neratinib (HKI-272)] the value was -12.8; for `Cc1cccc(Nc2cc(Cl)nc(SCC(=O)O)n2)c1C`, 0.568.
For `O=C(N/N=C/c1ccc([N+](=O)[O-])o1)c1ccc(O)cc1` [Nifuroxazide] the value was -5.81.
Turning to `Nc1ncnc2c1ncn2[C@@H]1O[C@H](COP(=O)(O)CP(=O)(O)OP(=O)(O)O)[C@H](O)C1O` (stereo partly drawn) [alpha,beta-Methylene adenosine 5'-triphosphate dilithium], the total cell number is -0.958.
Under `NC(=O)c1ncn([C@@H]2O[C@H](CO)[C@@H](O)[C@H]2O)c1O` [Mizoribine] stands -0.0169; under `Cc1cn([C@@H]2C[C@@H](O)[C@H](CO)O2)c(=O)[nH]c1=O` [Telbivudine], -1.69; under `C=C1/C(=C\C=C2/CCC[C@]3(C)[C@@H]([C@H](C)CCCC(C)(C)O)CC[C@@H]23)C[C@@H](O)C[C@@H]1O` [Calcitriol], -4.55.
For `Cc1ccc(/C(=C\CN2CCCC2)c2ccccn2)cc1` [Triprolidine hydrochloride] the value was 0.863; for `CCC[C@H](NC(=O)/C(C#N)=C/c1cccc(Br)n1)c1ccccc1` [Degrasyn (WP1130)], -15.2.
Under `Cc1c(Cl)cccc1Nc1ncccc1C(=O)O` [Clonixin] stands -0.771; under `C[C@H]1[C@H](NC(=O)/C(=N\OC(C)(C)C(=O)O)c2csc(N)n2)C(=O)N1S(=O)(=O)O` [Aztreonam], -0.402; under `OC[C@H]1O[C@@H](OCCc2ccc(O)cc2)[C@H](O)[C@@H](O)[C@@H]1O` [Salidroside], 1.45.
`CNCCC=C1c2ccccc2CCc2ccccc21` [Nortriptyline hydrochloride]: the total cell number was -6.55.
Under `CCc1c2c(nc3ccc(OC(=O)N4CCC(N5CCCCC5)CC4)cc13)-c1cc3c(c(=O)n1C2)COC(=O)[C@]3(O)CC` [Irinotecan HCl Trihydrate] stands -6.85; under `CCc1c2c(nc3ccc(OC(=O)N4CCC(N5CCCCC5)CC4)cc13)-c1cc3c(c(=O)n1C2)COC(=O)[C@]3(O)CC` [Irinotecan], -11.
Take `C=CCN1CCc2c(cc(O)c(O)c2Cl)C(c2ccccc2)C1` (racemic) [(±)-Chloro-APB hydrobromide]: the total cell number was -4.39.
`CCCCCCN(CCCCCC)C(=O)Cc1c(-c2ccc(F)cc2)[nH]c2ccccc12` [N,N-Dihexyl-2-(4-fluorophenyl)indole-3-acetamide]: the total cell number was -0.886.
Under `CCN(CC)CCNC(=O)c1ccc(NC(C)=O)cc1` [N-Acetylprocainamide hydrochloride] stands 1.57.
